In patent publication US20230287505A1 (ROPHELBIO, published 2023):

Biological target: T1, PD-L1 on mouse melanoma B16F10 cells (control pLKO/B16F10 and DRG2 knock-down shDRG2/B16F10) (mouse, UniProt Q9EP73)
T1 construct: whole, on cells; Same protein in control and DRG2 knock-down cells; the difference reported is the cell's state (surface location of PD-L1), not a variant of the protein; also called programmed death-ligand 1; CD274
Assay: flow cytometry, recombinant PD-1 Fc on fixed B16F10 cells, anti-human Alexa Fluor 488 secondary
Description: Specifically, FIG. 4A illustrates flow cytometry results for interactions between recombinant PD-1 and PD-L1 in melanoma.
To measure PD-1 and PD-L1 protein interactions, suspension cells were immobilized with 4% paraformaldehyde at room temperature for 15 minutes and incubated with a recombinant human PD-1 Fc protein (R&D Systems) for 1 hour. An anti-human Alexa Fluor 488 dye conjugate (Life Technologies) was used as a secondary antibody. Nuclei were stained with DAPI (blue; Life Technologies). Then, the fluorescence intensity of Alexa Fluor 488 dye was measured using a FACS flow cytometry analyzer (Becton Dickinson, Inc.).

T1 sequence (Q9EP73 19-290, one chain of several): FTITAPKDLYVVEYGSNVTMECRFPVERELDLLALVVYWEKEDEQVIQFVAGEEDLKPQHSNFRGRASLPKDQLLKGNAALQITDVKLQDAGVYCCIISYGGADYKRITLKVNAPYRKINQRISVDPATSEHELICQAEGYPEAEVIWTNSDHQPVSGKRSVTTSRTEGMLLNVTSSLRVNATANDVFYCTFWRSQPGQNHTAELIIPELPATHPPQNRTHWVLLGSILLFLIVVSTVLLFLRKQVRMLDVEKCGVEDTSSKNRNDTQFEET

binding result: binds
B1: recombinant human PD-1 Fc protein (R&D Systems) (Fc fusion)
chain: not shown
notes: Bought reagent (R&D Systems); also called recombinant PD-1; PD-1 protein; not shown: Fc part of the bought fusion protein
